The values that follow come from publication PMC12136788.

The other results are listed elsewhere or left out.

T1: UNK ZnF1-3 (human, UniProt Q9C0B0 31-174)
T1 sequence: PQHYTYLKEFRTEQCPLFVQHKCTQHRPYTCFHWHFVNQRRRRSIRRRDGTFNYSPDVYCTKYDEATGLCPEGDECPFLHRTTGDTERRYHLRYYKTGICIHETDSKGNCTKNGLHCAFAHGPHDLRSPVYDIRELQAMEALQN

B1: 155306504_155306716_2976_CDS_ENSMUSG00000042699_ENSMUST00000042141|mouse|control|control (ssRNA)
RNA: GGGAGUUCUACAGUCCGACGAUCCUGUACUUUGGCCUCCCAAGUCAUUCUCAGUGUAGCCAUAUUGAGUCUCUUCUGCUCACAAAAACGUAUUUCUGCUUCUUCUCCACUCAUCCUAGCAUCAUCCCAGGCUUGGAAUACUGACAACAGAGGAUUGAGCAUCA
B2: chr10:106025898:106025899:+_ENSG00000148834_ENST00000369713|hu_hu|FALSE|FALSE (ssRNA)
RNA: GGGAGUUCUACAGUCCGACGAUCUACACACUCAUUUAACUUCAUUGCUUCCAGCCGUUCAAACCAGGGCCAGAUGAGGUAAUCAAUCAUAGAGAUAGAAUUGCCACCAAAGAAGGUCGUCUUCUUAUUAGUCAGAACCUCCUCCAACAGAGGAUUGAGCAUCA
B3: chr4:108167797:108167798:+_ENSMUSG00000034610_ENSMUST00000043368|mus_hu|motif|central (ssRNA)
RNA: GGGAGUUCUACAGUCCGACGAUCCUCCACAAUUUCCUGACGGACUCUGAGGUCAUCAUCUGUUAUUCCAUGUUCUUUUGCGGAUUCAAUGACUGCAACACUUAAAGCAGCCAAGUGGGCAGGGGAAGGAGGUGGCAGAGAACGCAACAGAGGAUUGAGCAUCA
B4: chr5:33369694:33369695:+_ENSMUSG00000018965_ENSMUST00000019109|mus_hu|FALSE|FALSE (ssRNA)
RNA: GGGAGUUCUACAGUCCGACGAUCGGAAUCCUCGUUUAGUGUGUCCAGCUCAGCUAUGGCAUCAUCGAAGGCUUGUUUGGCUAAGAGGCAGGCUUGCUCAGGUGCAUUCUGGAUCUCAUAGUAGAACACGGAGAAGUUGAGGGCCAACAGAGGAUUGAGCAUCA
B5: chr1:180251914:180251915:+_ENSMUSG00000026500_ENSMUST00000027781|mus_hu|motif|central (ssRNA)
RNA: GGGAGUUCUACAGUCCGACGAUCAGAUCCUAAUGAACCAUACAAUAUUGAAUGCCGGGCGCAGGGAGUAUUUUCAACAUCGGAAAAUCCUAGGAGCUUAAGGGACUUCCAAUAUGAUAAAUGUAACGACGUACAAGAUGCCUUCAACAGAGGAUUGAGCAUCA
B6: chr10:24632488:24632489:+_ENSMUSG00000019984_ENSMUST00000092646|mus_hu|FALSE|FALSE (ssRNA)
RNA: GGGAGUUCUACAGUCCGACGAUCUGCUGGAGACCCACUGUUCAUGGCUUGUGGAGGCACUGCAGCUGGCUCCAUCUUGCUAAUGUGUGUGAUGAAUCGAAGACGAAGUUUUAAAGCUGGUUUUAAGUUACAGAUAAUCUUCUCCAACAGAGGAUUGAGCAUCA
B7: 37423422_37423793_878_CDS_ENSMUSG00000026113_ENSMUST00000027287|mouse|control|control (ssRNA)
RNA: GGGAGUUCUACAGUCCGACGAUCAGGGGGCUGCUGGUCGGACUUCUCCUCCAUCUGCCAGCCGAUCACAGUUAUGUUGCCGACACGGUCACUCUCUGCAGACCUCAGUGUCAGAUGCAAUCUGUGAUGCCUGUCCUGGAGCAGCAACAGAGGAUUGAGCAUCA
B8: chr14:78183846:78183847:+_ENSG00000119705_ENST00000557342|hu_hu|hu_hu_hu_mus_False|78_108 (ssRNA)
RNA: GGGAGUUCUACAGUCCGACGAUCUCUGUCUCAAAAAUCUUCAUCAGAUGUUUGAGCUGUUUGCGGAGCCUUUGCUCUUUGAGCUUGAACGUGGAUCUAUGGGAGGGAAAGCACUGUCAGAAAAGGUAAUUUUUUUUUUAAAGACAACAGAGGAUUGAGCAUCA
B9: chr19:10652113:10652114:+_ENSMUSG00000034445_ENSMUST00000168445|mus_mus|FALSE|FALSE (ssRNA)
RNA: GGGAGUUCUACAGUCCGACGAUCAAGGAAGCGGCGGAACCACCACUGGAACCCAUAACCCGGCUCUCCCAGCCCGGGUUCUAUCCCACCCUUAGCCACACAGUGGGACACCUUGGGGGCAGGUCUCUGGGACCCGCCGGUCAGCAACAGAGGAUUGAGCAUCA
B10: 118439522_118441709_1028_CDS_ENSG00000196505_ENST00000369442|human|control|control (ssRNA)
RNA: GGGAGUUCUACAGUCCGACGAUCGUCAAUAUCUCCUUCCAUUCGAGCAAAAGCAUGAGAGCCAAUGAAAGAGAGAUCAACUCCCAAGCCUUCAUCCUCCUCUUCUUGGUUAUCUUCUGGAGCACCAGGUUUCUCACUUAUUCUCAACAGAGGAUUGAGCAUCA
B11: chr2:47387770:47387771:-_ENSG00000143933_ENST00000272298|hu_mus|hu_hu_hu_mus_True|18_18 (ssRNA)
RNA: GGGAGUUCUACAGUCCGACGAUCAAGGUUUAAGGACAAUGACAGUAAGAUAAGGGAAGAAAACAUGGAGGAAUGAAGUCCUAAUUACUAUACAUGCAUAUUUUUUGACAGUAGGGGAGAAACCUUUUUUACAGAUAAGUUACACAACAGAGGAUUGAGCAUCA
B12: chr17:65740002:65740003:+_ENSG00000130935_ENST00000581375|hu_hu|hu_hu_hu_mus_False|1_58 (ssRNA)
RNA: GGGAGUUCUACAGUCCGACGAUCAACAAAUCUUUCUUCCCUGGACGAACAGGAAGAUUCAUAUUAAAAAAAAUAUAUGUCUAUGAAGUUAGGUGUGGUGGCCACACCUUUACUCCCAGCACUUUGGGAGGUGGAUCCUCUAUUCAACAGAGGAUUGAGCAUCA
B13: 65282079_65282199_135_5pUTR_ENSG00000090487_ENST00000204566|human|control|control (ssRNA)
RNA: GGGAGUUCUACAGUCCGACGAUCGGCGGCUGGGCCCGGGUCGGGGCGGGCGGCGGAGCACUCGGGACCCACGGGCACAGCAGGCUGCGCGGUGCGUGCGGGAGGCCGGCCUCUGAGGGGGCGGGGCGCGUGGCCGAGCGAGCUCAACAGAGGAUUGAGCAUCA
B14: chr3:95999270:95999271:+_ENSMUSG00000038486_ENSMUST00000035371|mus_mus|FALSE|FALSE (ssRNA)
RNA: GGGAGUUCUACAGUCCGACGAUCAUCCCCUGGGGAUGCAGUAAGGGAGAAGGCUACGUCCAGCCACGGAAUGGUGAAAGAAGGGUCGCACAUUCACACACUGGGCACUGGAGGAGAAGGCAGUCCUUUGAGCACAGACACUAGCAACAGAGGAUUGAGCAUCA
B15: 33558616_33576794_3194_CDS_ENSG00000163539_ENST00000461133|human|control|control (ssRNA)
RNA: GGGAGUUCUACAGUCCGACGAUCCAGCUCCUUCAACAACUCUGCAACUAGGUCAGAAUGAUCUAGGGAAAGAUCGUCAGGAAACUGGUCAGCAUCAUCAUCAAACAUGGCUUCCUUGAGGGCAGACUUGUUGAAGGGACUGAUCAACAGAGGAUUGAGCAUCA
B16: chr2:101883234:101883235:+_ENSG00000158435_ENST00000289382|hu_hu|FALSE|FALSE (ssRNA)
RNA: GGGAGUUCUACAGUCCGACGAUCGAAAUACUCAGUGAUCUGGCUUGACUGCAUUAAUUUCAGCAACAUUUCUAUAGCGACUAAAGGGUUGUUUUCCACAAGGUCAGGAAGUUUGGCUGGGGUGAGGCCAAUAUGGUAGACAAGCAACAGAGGAUUGAGCAUCA
B17: chr16:46708560:46708561:-_ENSG00000069329_ENST00000568784|perfect_dup|FALSE|FALSE (ssRNA)
RNA: GGGAGUUCUACAGUCCGACGAUCAAAAAGUUUAAUCUCAGCUGGAAUUCCGGGUCCAUCUUCACGAUGAGCAAAUAAAGCUAAUCUGUCAAUUAAAGCAAUGAUUAUGUUUUUCACAUUUACAUUUUGGUGUAAUUCAGCACACAACAGAGGAUUGAGCAUCA
B18: chrX:71549400:71549401:+_ENSMUSG00000019087_ENSMUST00000019231|mus_hu|mus_mus_mus_hu_False|78_98 (ssRNA)
RNA: GGGAGUUCUACAGUCCGACGAUCGCAGUAGGAAGAGCAAACCUUUCCAGUCCAGUGGUCACAAAACUGGGAAAGCAACAACACGGACACCGUCCCACCCUCAACCCCCCCACUGGCACAGGGUCACACAAUCUGGGUCAAAGACAACAGAGGAUUGAGCAUCA
B19: chr8:26875701:26875702:-_ENSMUSG00000037316_ENSMUST00000038498|mus_mus|motif|central (ssRNA)
RNA: GGGAGUUCUACAGUCCGACGAUCAGACUACUGAGACAGACAACCAAAUGCAAAACUGGAUCUGGAACAGUUGAGAGGAUGCGGCGGAAAAGAUAAAUGAAGUGUCUACUUUUAGCUUGCUACUUCAGCUAAUAUUAAUAGCACCAACAGAGGAUUGAGCAUCA
B20: chrX:147244336:147244337:-_ENSMUSG00000025268_ENSMUST00000112699|mus_mus|FALSE|FALSE (ssRNA)
RNA: GGGAGUUCUACAGUCCGACGAUCACUGAGAAGAAUAUACAAGUGGUCAUUCUUGUCAAUUUCUUUCAAUUGGAUUCCAAAUACCUUCUCCAAGGAAUAGCCUGCUCGUUCAAUGAUUUCAGGGUAUACAUCAGUAUAUUCUUUCAACAGAGGAUUGAGCAUCA
B21: chr4:6882955:6882956:+_ENSG00000170871_ENST00000425103|hu_mus|motif|central (ssRNA)
RNA: GGGAGUUCUACAGUCCGACGAUCUGGCGACACAGCCGCCAGAGGGAGGCCUGCAGCUGCGAUGCAGAAGCGGGACGCACGGGGACAAGCACAUGCACACCCAUUCCUCAUGGACAGCACAGUCUAGUCUACUUCAGAGAGCAACAACAGAGGAUUGAGCAUCA
B22: chr11:100882373:100882374:+_ENSMUSG00000019302_ENSMUST00000044721|mus_mus|mus_mus_mus_hu_True|1_28 (ssRNA)
RNA: GGGAGUUCUACAGUCCGACGAUCUUCCUGGUUUGUGUUGAUUUCCUUCAGUUCAUUUUCAAUCUUCUCAAAAUUGGCCUCUAAGUCAAUCAUGUCCCGGGGGAAGGGCACCUCUGGGUUUUCACCGGUGUCCAUAAUUGGGAUCAACAGAGGAUUGAGCAUCA

The target of the assay is T1, UNK ZnF1-3. Briefly: nsRBNS (natural sequence RNA bind-n-seq); RBNS binding buffer (assumed for nsRBNS): 25 mM Tris pH 7.5, 150 mM KCl, 3 mM MgCl2, 0.01% Triton X-100, 500 ug/ml BSA, 20 U/ml SUPERase-In, 4 C; UNK is unkempt and MSI1 is Musashi-1; names of the RNAs are library labels; protein concentration not given here; high values mean tight binding.
B1 showed a binding signal of 0.801 enrichment R. B2 showed a binding signal of 1.24 enrichment R. To B3 belongs 1.17 enrichment R; to B4, 1.25 enrichment R; to B5, 1.55 enrichment R. The result for B6 reads 0.925 enrichment R. To B7 belongs 0.238 enrichment R. B8 showed a binding signal of 2.92 enrichment R.

In turn, B9 came in with a binding signal of 0.72 enrichment R. The molecule B10 had a binding signal of 1.12 enrichment R. The result for B11 reads 1.81 enrichment R; that for B12, 1.17 enrichment R. To B13 belongs 0.738 enrichment R. In the case of B14, the binding signal is 1.02 enrichment R. B15 showed a binding signal of 0.445 enrichment R. As to B16, the binding signal is 1.53 enrichment R. For the molecule B17, the binding signal was determined as 1.15 enrichment R. To B18 belongs 1.59 enrichment R. B19 showed a binding signal of 2.55 enrichment R.

With B20, the binding signal stood at 0.463 enrichment R.

Molecule B21 came in with a binding signal of 1.3 enrichment R.

Turning to B22, the binding signal is 0.522 enrichment R.
